# Laboratory results: the supplement of paper PMC11417369
# ± gives the standard deviation of the averaged measurements. Some of the results follow.
# System: PfAP2-LT AP2 domain (GST-tagged)
# Assay: gcPBM binding intensity (ln(normalized median fluorescence intensity)); higher = stronger DNA binding
# How it was run: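 Binding intensity is the highest Masliner-normalised natural-log median intensity over replicate spots in either probe orientation. To obtain it, GST-tagged P. falciparum DNA-binding domains made in E. coli were incubated for 1 h on an Agilent 4 × 180k array of primer-extended double-stranded 36-bp intergenic genomic probes plus negative controls. Detection used Alexa488 anti-GST antibody with scanning at 488 nm.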
row,Sequence,gcPBM binding intensity (ln)
1,TAATAATAAAAATAAACACACATATATCTGTATTTA [CACACA_site5572],8.78 ± 0.38
2,GGTGGAAACAATTACACACACACAAAAAAAAAAAAA [CACACA_site3208],9.46 ± 0.51
3,AATCACAACAGACACACACACAAAAAAAAAAAAAAA [CACACA_site1442],9.35 ± 0.42
4,ATATGTTATATAAATATATATATATATATATATATA [TGCATGCA_negctrl_site594],9.205 ± 0.078
5,TTAATATAATAGAAGTGTACACACATATTTATGTGT [XGTACX_site6672],9.6 ± 0.4
6,TAAAGAAAAAGAGAATGTACATGAGAAAAGTATACT [XGTACX_site7472],8.99 ± 0.36
7,AGAAAAAAAAAAAAATGTACAGACTTTTTCTTATAA [XGTACX_site6481],8.36 ± 0.58
8,AAAAAAGATAATTATGCACACACACCCACCCACCCA [CACACA_site8825],10.085 ± 0.0071
9,ACACAAAAAAATATATATATATATATATATATGTTA [CACACA_negctrl_site55],9.38 ± 0.4
10,TTTTTATAAATACACATAAATATATATATATATATA [TGCATGCA_negctrl_site393],8.94 ± 0.21
11,AAAAAAAAAAAAAAATGTACATTTTGAAAGGATATA [XGTACX_site8217],8.54 ± 0.65
12,ATGCATTATTAGAATACACACCATACGCATATTTAT [CACACA_site4319],9.08 ± 0.38
13,TATGATTTTAACAACTGTACAATATAATAAATCTAA [XGTACX_site2198],8.47 ± 0.38
14,TGGGTCTCTAACTGGTGTACTATTTACATATTATAC [XGTACX_site8593],9.03 ± 0.46
15,ATATATTTTTAATTACGTACTTAATAATATATACAA [XGTACX_site3285],8.55 ± 0.4
16,TAAAAGAAAAATTAGTGTACCAATATTAACATAAAA [XGTACX_site5474],8.64 ± 0.47
17,TCTCATAGGAAACACACACACACACCCACATATATA [CACACA_site1738],10.1 ± 0.11
18,ATATATTTTTTAAATTTAAAAATTATAAAATTTATA [TGCATGCA_negctrl_site36],8.13 ± 0.33
19,TAAATAAAAAAAAAAAGTACATACATACAAACATAT [XGTACX_site4427],8.94 ± 0.49
20,ATATATGTGCGCGTATGTACATAAAATAAATATACA [XGTACX_site2689],9.46 ± 0.52
21,TAATTCTAAATAAATGTACACACAAAAATAAATGTA [CACACA_site8509],8.92 ± 0.34
22,TATATATATATTATATGTACATAAATATTTATACTC [XGTACX_site114],8.78 ± 0.4

row,Sequence,gcPBM binding intensity (ln)
1,TTGATAAAATGGGAGAAATTAAAAAGGAAAAAAAAA [CACACA_negctrl_site1279],8.39 ± 0.54
2,CTATTTTATATGTGCACACATATACACCCACAAATA [CACACA_site1131],9.33 ± 0.2
3,TTATAAAATTTTCTTCTATATTTTAATTATTCTCAT [TGCATGCA_negctrl_site571],8.45 ± 0.67
4,ATTAAAAGAACCAAGTGTACATTCTATATATAAAAA [XGTACX_site4260],8.71 ± 0.51
5,TATACAATATATTTTGGTACACAAACAAAAAAATAT [XGTACX_site2522],8.89 ± 0.52
6,GAAAAAGACAAAAGGTGTACAATATGAAATATATAT [XGTACX_site373],9.16 ± 0.46
7,ATATTATGATCTATTTTTATATTCTATTTGATAAAT [CACACA_negctrl_site1070],8.58 ± 0.45
8,GTTCACCAAAGGTAACGTACACAAACATATATATAT [XGTACX_site1073],9.03 ± 0.38
9,AAAATAATAATTAAATAATAGTAAATGAAAAATAAA [CACACA_negctrl_site57],8.71 ± 0.56
10,ATAAATACTAGGCACACACACATATAGATTTATATA [CACACA_site7064],9.77 ± 0.47
11,ACTTCATTTTATAAGTGTACATAATTTGTTTATATA [XGTACX_site5453],8.84 ± 0.42
12,TATGTGTTCAGTATTGCACACACACTCCAAAATAAA [CACACA_site8018],9.5 ± 0.18
13,GTTGTCCCCCTTTCTATGCACACTTTAAATTATTCA [CACACA_site52],9.23 ± 0.28
14,AATTTATAAGAATATTGTACGTTTAATATATTGTAA [XGTACX_site7553],8.52 ± 0.35
15,ATTCTAATAGATAGTAGTACCTATAAGTTTTCTTTT [XGTACX_site2315],8.57 ± 0.47
16,AAACGATCTCGATGTTGTACACATTTATATAGAAAC [XGTACX_site4373],8.95 ± 0.46
17,TACTAAAATATATATATGCAACATGAGATATTCAAC [XGTACX_negctrl_site283],8.85 ± 0.38
18,CTAAACTAAACAAACTGTACACAAATAAAACAATAA [XGTACX_site8880],8.95 ± 0.47
19,CATGTGTGTATAATTTGTACATATACATAATAAATA [XGTACX_site2418],9.2 ± 0.3
20,ATATCAACTGAATTGTATAGGCGATAAAAGAAAAAA [CACACA_negctrl_site1334],8.74 ± 0.5
21,TTTATACATACATTCGTGCACATACGTATAACATAT,9.07 ± 0.37
22,AGAATTATAAATTATAGTACATAAAATTTTGATGTA [XGTACX_site5726],8.54 ± 0.36

row,Sequence,gcPBM binding intensity (ln)
1,ATATAAATATATGTATGTACACATTTTTTTTTTTTT [XGTACX_site247],8.71 ± 0.4
2,TTTATAACATTTAAGAGTACAAAAAAATAAATAAAT [XGTACX_site1264],8.57 ± 0.44
3,TAAAAGATAAAATATGCATGTGTAATTTTTTTTTTT [TGCATGCA_site955],8.58 ± 0.42
4,GAAATATAATTTATTACACACATTTTAAAAAAATTC [CACACA_site1087],8.58 ± 0.31
5,TTCAACGTTTTGGAATGTACAGAAAGGTATCCATCA [XGTACX_site179],8.62 ± 0.42
6,AAAAAAAAAAAAAAAAAAAAAAAAAAAAAATATGTG [GTGCAC_negctrl_site657],8.91 ± 0.27
7,ATGAACTAAACTAATCGTACAATAAGTTTTATTATA [XGTACX_site4891],8.66 ± 0.56
8,AAAAAAATATATAAATGTACATATTGTTTAATTAAT [XGTACX_site3794],8.7 ± 0.45
9,TCACACACTCTCAAAAGTACAAGAAGATTATGAAGA [XGTACX_site4748],9.11 ± 0.45
10,ATCTATCATATTTATGCACACAAAAATAATTAATTC [CACACA_site8837],8.94 ± 0.42
11,TATTATTTACTTATTGCACACATATAAAATATATTT [CACACA_site9017],9.04 ± 0.4
12,ATATGCACTCATTGTGCACACGCATATTACGAAAAG [CACACA_site2637],9.18 ± 0.3
13,AATTTACAAAAAAGAAAAAAAAAAAAAAAGATACTT [CACACA_negctrl_site1434],8.45 ± 0.58
14,TTTTTTTTTTTTTTTTTTTTTTTTTTATGATATATA [GTGCAC_negctrl_site365],8.24 ± 0.4
15,ATATTATAATGTTTTTACGAATTCGCAAATTATTAT [GTGCAC_negctrl_site470],8.75 ± 0.4
16,TTAATTATCCATTTTGCACACATTTTAAAACATGAA [CACACA_site189],9.02 ± 0.39
17,AGATTGTATTTATGTACACACATTTTTGGAATATGA [CACACA_site1340],8.96 ± 0.35
18,TTAAATATAATTATATGTACATATTTATGTATATAT [XGTACX_site5811],8.75 ± 0.37
19,TTGATTAAAATTAGTACACACAAAATACATGCGGGG [CACACA_site5284],9.43
20,TATATATTAAAATAATCACACACATCAATTAATGGT [CACACA_site8331],9.09 ± 0.42
21,AAAAAATTATTAATTTGTACATAAATAACCAAAAAA [XGTACX_site2488],8.49 ± 0.52
22,TTTTTTAAATGTATTAAAATTATATATATATATATA [GTGCAC_negctrl_site570],8.63 ± 0.16

row,Sequence,gcPBM binding intensity (ln)
1,ATACATAAATTTAGAAGTACATAACAAATTTTTAAA [XGTACX_site7448],8.66 ± 0.45
2,AATCAAAACAACAATAGTACATAAAAAAACAAAACA [XGTACX_site4181],8.97 ± 0.49
3,ATTAAATGTTATATTTGTACATATTATATATATATA [XGTACX_site5095],8.75 ± 0.45
4,TCCATATTTGTTCACACACACACATATTTATATATA [CACACA_site3570],9.56 ± 0.28
5,TTTGTTATTTTTTATTGTACTTTTTTTCTTTCATAA [XGTACX_site4302],8.75 ± 0.45
6,TTCATTTTTTATTATAGTACACATAATATTTGCAGA [XGTACX_site4032],8.66 ± 0.51
7,TATATATATATGTGCGTGCACGTTACCTTGCTGTTT,9.69 ± 0.23
8,TTTCCAAATACAACTACACACAAACAAAAGTTATAT [CACACA_site6544],9.04 ± 0.42
9,AAATTTAACAACTTCAAACACACAATATATATATAT [CACACA_site2092],9.06 ± 0.34
10,TATAATAATAATTATACATGCATGAATATTTATATG [TGCATGCA_site811],8.64 ± 0.34
11,TCCTATATATAAATATTAATATATATGTATTGGTAT [GTGCAC_negctrl_site23],8.66 ± 0.49
12,TTTCTTATTTTGGATTGTACGTATATTTTTCATTTT [XGTACX_site224],9.01 ± 0.48
13,AAAAAAAAAAAAAACACACACACAAATACAAATGGT [CACACA_site1721],9.85 ± 0.23
14,TTATATTTCAATCATATTGTCACAAGTCATATTTAT [GTGCAC_negctrl_site366],8.66 ± 0.45
15,TTACACATGAGAAAATGTACATATAATAAAATATGT [XGTACX_site904],8.93 ± 0.38
16,AACAAAAAAAAAAAAAAAAAAAAAAAAAAAAAAATG [CACACA_negctrl_site1127],8.45 ± 0.4
17,AATAAAAAAAATAGCATACACACATATATACATATA [CACACA_site659],8.96 ± 0.4
18,ATGGACAAGTTAAACGCACACAAATATATACACCCA [CACACA_site8478],9.64 ± 0.52
19,ATGTTCTTATTATTGGTGCAAGAATACACAAGAAAA,8.69 ± 0.47
20,TATTGTTCTTATTTAGTGCATATATAATATAATATA [GTGCAC_site9827],8.53 ± 0.4
21,AACACATAATAAAATTGTACCCAACATTTCTTTTGA [XGTACX_site8061],8.73 ± 0.47
22,TATGTGAATAAATAAGCACACATAAACACATATATA [CACACA_site9359],9.4 ± 0.34
